The whole screen tested about 310,000 compounds, of which about 14,000 (4.5%) showed an effect of 50% or more. The effect is printed as a negative number. This is one part of the list.
target: human ether-à-go-go-related gene (hERG) potassium channel (human, UniProt Q12809); experiment: primary screen, population patch clamp on CHO cells stably expressing hERG
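Also: peak tail current of the secondary pulse compared with the same well before compound.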

human ether-à-go-go-related gene (hERG) potassium channel, sequence (Q12809 whole entry, looked up): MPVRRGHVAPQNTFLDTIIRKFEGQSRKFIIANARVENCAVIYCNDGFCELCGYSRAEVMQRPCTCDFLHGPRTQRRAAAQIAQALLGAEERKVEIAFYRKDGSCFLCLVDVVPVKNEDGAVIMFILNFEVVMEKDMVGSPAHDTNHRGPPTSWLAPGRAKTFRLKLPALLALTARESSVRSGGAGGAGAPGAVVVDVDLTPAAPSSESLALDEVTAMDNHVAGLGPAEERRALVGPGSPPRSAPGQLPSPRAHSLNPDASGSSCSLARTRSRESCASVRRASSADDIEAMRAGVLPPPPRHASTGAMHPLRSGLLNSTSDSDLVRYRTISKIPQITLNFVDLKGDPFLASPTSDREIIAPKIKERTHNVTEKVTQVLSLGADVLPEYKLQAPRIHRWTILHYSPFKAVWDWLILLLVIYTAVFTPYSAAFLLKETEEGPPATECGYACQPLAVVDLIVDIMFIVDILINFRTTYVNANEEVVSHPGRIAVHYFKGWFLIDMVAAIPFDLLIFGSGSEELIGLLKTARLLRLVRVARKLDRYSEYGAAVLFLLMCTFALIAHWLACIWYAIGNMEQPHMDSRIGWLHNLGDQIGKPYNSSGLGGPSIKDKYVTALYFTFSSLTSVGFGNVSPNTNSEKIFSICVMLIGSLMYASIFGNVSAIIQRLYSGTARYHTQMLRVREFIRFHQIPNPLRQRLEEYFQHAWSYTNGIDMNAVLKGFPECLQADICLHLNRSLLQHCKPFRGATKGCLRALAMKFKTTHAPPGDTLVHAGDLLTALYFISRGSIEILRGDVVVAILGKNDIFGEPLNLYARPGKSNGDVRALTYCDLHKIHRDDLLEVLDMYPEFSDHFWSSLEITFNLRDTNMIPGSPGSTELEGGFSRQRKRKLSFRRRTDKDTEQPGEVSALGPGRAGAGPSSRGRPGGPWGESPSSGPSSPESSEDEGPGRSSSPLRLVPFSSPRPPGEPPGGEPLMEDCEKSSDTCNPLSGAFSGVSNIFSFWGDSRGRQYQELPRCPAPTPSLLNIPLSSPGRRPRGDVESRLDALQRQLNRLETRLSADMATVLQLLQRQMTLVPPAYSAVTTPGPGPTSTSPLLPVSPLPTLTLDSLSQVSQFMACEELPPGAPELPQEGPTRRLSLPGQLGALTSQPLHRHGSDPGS

Compound | hERG current change (%, negative = inhibition) at 10uM
C[C@@H](CSc1ccccc1)CN1CC[C@H](NC(=O)OCc2ccccc2)CCC1=O | -44.2%
N/C(=N\OC(=O)c1ccccc1Br)c1ccc([N+](=O)[O-])cc1 | -14.4%
O=C(CC1NCCNC1=O)Nc1cccc([N+](=O)[O-])c1 (stereo not drawn) | 7.17%
Cc1ccc(OCCNC(=O)c2ccccc2SCC(=O)N2CCCC2)cc1 | 5.98%
O=C(CCS(=O)(=O)c1ccccc1)Nc1nnc(-c2ccco2)o1 | 14.8%
Cc1c(C(=O)N2CCCCC2)sc(N)c1C#N | 16.3%
CC(C)CCNC(=O)C1CCCN(S(=O)(=O)c2ccc(F)cc2)C1 (stereo not drawn) | 6.85%
CC(C)(C)NC(=O)C(c1ccco1)N(C(=O)Cn1nnc(-c2ccc(F)cc2)n1)c1cccc(F)c1 (stereo not drawn) | 9.99%
Cc1cccc(C)c1NC(=O)c1cccn(Cc2ccc3c(c2)OC(F)(F)O3)c1=O | -4.53%
CN1CCN(CCCCC(=O)c2ccccc2)CC1.Cl | -0.477%
OC1CCN(Cc2ccc3ccccc3c2)CC1 | 13.4%
O=C(NCc1ccco1)c1ccc(S(=O)(=O)N2CCOCC2)cc1 | 11.5%
COc1ccccc1NC(=O)/C(=C/c1cccc([N+](=O)[O-])c1)c1ccccc1 | -26.6%
CSc1ncc(CN2CCN(CCC(C)C)C(CCO)C2)cn1 (stereo not drawn) | -1.45%
COc1ccccc1CN1CCC(CNS(=O)(=O)c2cc(-c3onc(C)c3C)ccc2OC)CC1 | -76.7%
NC(=O)C1(N2CCCCC2)CCN(CC(=O)Nc2ccccc2Sc2ccccc2)CC1 | -2.74%
CCCCn1c(N)c(-c2nc3ccccc3o2)c2c([N+](=O)[O-])nn(CC)c(=O)c21 | 2.15%
Fc1ccc(CNC(=S)Nc2ccccc2Cl)cc1 | 4.82%
Fc1ccc(C2c3[nH]c4ccccc4c3CCN2Cc2ccoc2)cc1 (stereo not drawn) | -26.8%
COc1ccc(CN2C(=O)C(CC(C)C)Nc3ncnc(N4CCN(c5ccccc5)CC4)c32)cc1.O=C(O)C(F)(F)F (stereo not drawn) | -10.4%
COc1ccc(OC)c(C(=O)Nc2ccc3[nH]ccc3c2)c1 | 2.15%
Cc1cccc(Nc2nc(NCCCN3CCOCC3)nc(N)c2[N+](=O)[O-])c1 | -17.9%

Compound | hERG current change (%, negative = inhibition) at 10uM
CC(=O)N1CCN(C2=Nc3cccc4cccc2c34)CC1 | -46%
O=C(CCC1CCCN(C(=O)Cc2ccc(F)cc2)C1)N1CCN(c2ccccn2)CC1 (stereo not drawn) | -16.6%
CCOC(=O)c1c(NC(=O)Cc2cccs2)sc2c1CCCC2 | 5.61%
c1ccc2[nH]c(CSc3nc4ccccc4o3)nc2c1 | -7.86%
COc1ccc(-c2cc(C(=O)N/N=C(\C)c3cccnc3)c3ccccc3n2)c(OC)c1 | 1.6%
CC(C)Oc1ccc(CNC(=S)N/N=C/c2ccc([N+](=O)[O-])cc2)cc1 | 5.16%
O=C(NN1CCOCC1)c1ccc([N+](=O)[O-])cc1 | 4.35%
CCCCn1c(N)c(N(CCOC)C(=O)c2cc3ccccc3cc2OC)c(=O)[nH]c1=O | 27.1%
CCn1c2ccccc2c2cc(NC(=O)c3ccc(C)c([N+](=O)[O-])c3)ccc21 | 2.4%
CCOc1ccc(S(=O)(=O)n2c(C)nc3ccccc32)cc1 | -13.4%
CN(C)S(=O)(=O)c1cc(NC(=O)CNCCN2CCOCC2)ccc1Cl.O=C(O)C(=O)O | -6.15%
O=C(NCc1ccncc1)c1cc(-c2ccc(Cl)cc2)oc1C(F)(F)F | 5.31%
CCN(CC(=O)Nc1cc(Cl)ccc1C)C(=O)CCS(=O)(=O)c1ccc(Cl)cc1 | -27.6%
CCOCC(=O)Nc1nnc(SCCOC)s1 | -0.419%
O=C(NC1CC1)C1CCN(C2CCN(C(=O)CC3=CCCCC3)CC2)CC1 | 4.68%
Oc1c(Br)cc(Br)cc1/C=N/c1nccs1 | -19.6%
CC(C)(C)c1cc(NC(=O)c2cccc([N+](=O)[O-])c2)no1 | 3.8%
O=C(COc1ccccc1F)NNC(=O)c1ccc(N2CCCCC2)c([N+](=O)[O-])c1 | -36%
COc1ccccc1CCNC(=O)Cn1ccc2cc(S(=O)(=O)N3CCCC3)ccc21 | 24.4%
Cc1cc(S(=O)(=O)Nc2noc3ccccc23)ccc1F | 20.9%
COc1cc(C(Nc2ccc3c(c2)OCO3)C(=O)NC2CCCCC2)cc(OC)c1OC (stereo not drawn) | -61.7%
CCc1cccc(C)c1NC(=O)CCCC(=O)O | 12%

Compound | hERG current change (%, negative = inhibition) at 10uM
O=C(Nc1ccc(Cl)cc1)Nc1nnc(CSc2ccc(Cl)cc2)s1 | -3.83%
CC(C)CCN(C(=O)c1csnn1)C(C(=O)NC1CCCC1)c1ccccc1 (stereo not drawn) | -27.8%
Cc1ccc(S(=O)(=O)Nc2ccccc2-c2nc3ccccc3[nH]c2=O)cc1 | -5.94%
COc1cc(NC(=S)N2CCN(C/C=C/c3ccccc3)CC2)cc(OC)c1 | -10.7%
O=C(NCc1ccccc1)c1csc(-c2cccnc2)n1 | -9.49%
CC1=C(C#N)C(c2ccoc2)C(C(=O)OCc2ccccc2)=C(N)S1 (stereo not drawn) | -1.32%
O=C(Nc1ccc(Cc2ccncc2)cc1)c1cc(F)c(F)cc1Cl | -71.2%
O=C1C=C(Nc2ccc(Cl)cc2)C(=O)N1c1ccc(Cl)cc1 | 9.57%
CC(C)Cc1oc(C(=O)O)cc1CN.Cl | -4.32%
Nc1nc(CN2CCCCC2)cs1 | 0.0465%
Cc1nc(SCC(=O)NC(=O)NCc2ccccc2)nc(C)c1C | -21.8%
Cc1sc2ncn(CC(=O)NCC3COc4ccccc4O3)c(=O)c2c1S(=O)(=O)N1CCOCC1 (stereo not drawn) | 18.5%
O=C(NC(=S)N1CCOCC1)c1cn(-c2ccccc2)nc1-c1ccccc1 | 10.8%
CCN1CCN(c2ccc(NC(=O)c3ccc(C#N)cc3F)cc2Cl)CC1 | -72.1%
O=C1C2C3C=CC(C3)C2C(=O)N1CN(Cc1ccccc1)CN1C(=O)C2C3C=CC(C3)C2C1=O (stereo not drawn) | -2.54%
O=C(c1ccc(NS(=O)(=O)/C=C/c2ccccc2)cc1)N1CCCCC1 | -26.2%
CCOC(=O)c1nc(Nc2ccccc2CC)c2ccccc2n1 | -11.4%
c1cncc(C2Nc3ccccc3-c3nc4ccccc4n32)c1 (stereo not drawn) | -5.58%
Cc1c(C(=O)O)sc2nc(CSc3nnc(-c4ccc(F)cc4)n3C)[nH]c(=O)c12 | 10.9%
CC(OC(=O)c1cccc(-n2cnnn2)c1)C(=O)NC1(C#N)CCCCC1 (stereo not drawn) | -13.7%
COC(=O)c1ccc(OCC(=O)Nc2ccccc2C(=O)NC2CC2)cc1 | -13.8%
CCC1CCCCN1P(=O)(c1ccc(C)o1)C(C)(C)C (stereo not drawn) | -27.4%

Compound | hERG current change (%, negative = inhibition) at 10uM
COc1cccc(C(=O)N[C@@H](C)C(=O)N2CCC3(CC2)NCCc2[nH]cnc23)c1 | 21.3%
Nc1ncc(-c2ccccc2)c(-c2ccc(OCc3ccccc3)cc2O)n1 | -2.98%
Cc1ccc(S(=O)(=O)NC(=O)c2ccc(-c3ccc(-c4ccccc4)cc3)o2)c(C)c1 | -22.4%
COc1ccc([N+](=O)[O-])cc1NC(=O)C(C)c1ccccc1 (stereo not drawn) | -15.4%
COc1ccc(OCc2nnc3n2N=C(c2ccc(Br)cc2)CS3)cc1 | -1.31%
CC(C)(C)C(=O)O/N=C(\N)c1ccc([N+](=O)[O-])s1 | 20.7%
Cc1sc(NC(=O)c2ccco2)c(C(Nc2ccccn2)c2ccccc2)c1C (stereo not drawn) | 4.67%
COc1ccccc1C(=O)NCC(=O)Nc1ccc2c(c1)CCC2 | -3.66%
O=C(Nc1ccccc1)N1CCSc2cc(Cl)ccc21 | -0.0515%
CCC(C)NC(=O)c1ccc(NC(=O)CC2SC(N3CCCCC3)=NC2=O)cc1 (stereo not drawn) | 16%
Cc1cc(C)cc(NC(=O)c2cccc(C(=O)Nc3cc(C)cc(C)c3)n2)c1 | 15.7%
CCOc1ccc(C(=O)NCCO)cc1 | 4.7%
COc1ccccc1C(=O)Nc1cc2cc(Br)ccc2oc1=O | 15.5%
O=C(NOC(=O)c1ccccc1Cl)c1cccs1 | 2.83%
Oc1c(C=Nc2ccccc2)sc(=S)n1Cc1ccccc1 | 4.64%
COc1ccccc1/C=C/C=N/n1c(-c2ccc(F)cc2)n[nH]c1=S | 6.25%
COc1ccc(NC(=O)Cn2nnc(C(=O)NCc3cccs3)c2N)cc1Cl | -5.23%
O=C(O)c1cc(-c2ccc(N3CCOCC3)cc2)nn1-c1ccc(F)cc1 | 14.6%
CC(NC(=O)c1ccc(Cl)cc1Cl)C(c1ccccc1)N1CCOCC1 (stereo not drawn) | 18.9%
O=S1(=O)C=C(N2CCOCC2)c2ccccc21 | 15.5%
Cn1nc(-c2ccc(Cl)cc2)cc1NC(=O)CC(C)(C)CC(=O)O | 17.9%

Source: paper PMC4336329 (PLoS ONE, 2015)
